According to PubChem BioAssay AID445 (National Center for Advancing Translational Sciences (NCATS), 2006):
Hit rate of the full screen: of about 110,000 compounds, about 40 (0.04%) were called active. The shares of active, inactive and inconclusive entries below differ from those in the screen. The call rests on the fitted dose curve; in most records, active means well fitted curve in the direction sought with a large enough effect in the signal ratio (not every such curve was filed as active); inconclusive means small, poorly fitted or top-dose-only effect, or a change in a side signal; inactive means flat fitted curve, though single readings scatter; the % refers to the signal ratio. Where the call is inconclusive, the potency comes from a doubtful curve fit.

Experiment: IkB Signaling;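 on IkBa stabilization activation: 0% = basal untreated cells and 100% = reference inhibitor full response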
Conditions: ABC-DLBCL IkBa-CBG/CBR dual luciferase ratio (green luciferase fused to IkBa over red control in OCI-Ly3 lymphoma cells), 4 h; IkBa stabilization activation: at 57.1 µM (top of the series), scaled: untreated 0%, proteasome inhibitor 100% unless noted
Procedure, shortened: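 Curves were fitted separately to fusion (green), unfused (red) and ratio luminescence, then classed by r2, magnitude and activity. Cells: OCI-Ly3, 4 h compound plus doxycycline at 37C; 10 uM MG-132 defined full response.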
Potency means the concentration at half of the fitted maximal effect.

Q: For COc1cc(-c2[o+]c3cc(O)cc(O)c3cc2O)cc(O)c1O, which IkBa stabilization activation is on record?
A: inactive: 1.76% [at 11.4 µM, scaled: untreated 0%, proteasome inhibitor 100%]

Q: For Cc1cc(C)cc(NC(=O)CSc2nnc(Cc3cccn3C)n2-c2ccc(F)cc2)c1, which IkBa stabilization activation is on record?
A: inconclusive: 6.79% [signal inhibitor]

Q: With COc1ccc(CNC(=O)CSCc2cnn(-c3ccccc3)c2-n2cccc2)cc1OC as the molecule, how does the IkBa stabilization activation read?
A: inconclusive: 3.01% [signal inhibitor]

Q: For Cc1cccc(N2CCN(C(=O)c3cc4c(=O)[nH]c5ccc(C)cc5c4s3)CC2C)c1 (stereo not given), which IkBa stabilization activation is on record?
A: inconclusive: -0.242% [signal inhibitor]

Q: For COc1ccc(Cn2c(CNC(=O)Cc3cccc([N+](=O)[O-])c3)nc3cccnc32)cc1, which IkBa stabilization activation is on record?
A: inactive

Q: With CCOc1ccc(OCC)c(NC(=O)CSc2nc3ccccc3c(=O)n2C)c1 as the molecule, how does the IkBa stabilization activation read?
A: inactive

Q: With COc1ccc(C(C(=O)Nc2ccc(C(C)C)cc2)N(C)C(=O)Cc2cccs2)cc1 (stereo not given) as the molecule, how does the IkBa stabilization activation read?
A: inconclusive: 3.61% [signal inhibitor]

Q: With CCCCc1ccc(-c2nc(N)n[nH]2)cc1 as the molecule, how does the IkBa stabilization activation read?
A: inactive

Q: For Cc1ccccc1Nc1nnc(-c2ccc(C)c(S(=O)(=O)N3CCN(C)CC3)c2)c2ccccc12, which IkBa stabilization activation is on record?
A: inconclusive: 8.32% [signal inhibitor]

Q: Which IkBa stabilization activation does the source give for Cc1cccc(Nc2nc(NCc3ccco3)nc(N3CCOCC3)n2)c1 here?
A: inconclusive: 3.48% [signal inhibitor]

Q: With Cc1occc1-c1nnc(SCC(=O)N2CCOCC2)o1 as the molecule, how does the IkBa stabilization activation read?
A: inactive

Q: For CN(C)c1ccc(-c2nc3ccccc3n2C)cc1, which Potency is on record?
A: inconclusive: 25.1 µM [signal inhibitor, partial curve]

Q: For COc1cccc(NC(c2nnc(-c3ccccc3)o2)c2ccc(F)cc2Cl)c1 (stereo not given), which IkBa stabilization activation is on record?
A: inconclusive: 9.67% [signal inhibitor]

Q: With COc1ccc(C(=O)NCC(c2cccnc2)N2CCN(c3ccccc3OC)CC2)cc1 (stereo not given) as the molecule, how does the IkBa stabilization activation read?
A: inconclusive: -0.639% [signal inhibitor]

Q: With CCc1cccc(Nc2cc(C)nc3ncnn23)c1 as the molecule, how does the IkBa stabilization activation read?
A: inactive

Q: Which IkBa stabilization activation does the source give for O=C(c1csnn1)N1CCC[C@@]2(CCN(c3ccccn3)C2)C1 here?
A: inactive: -0.773% [at 11.4 µM, scaled: untreated 0%, proteasome inhibitor 100%]

Q: With CSc1nc(-c2ccccc2)nc2c1COC(C)(C)C2 as the molecule, how does the IkBa stabilization activation read?
A: inactive

Q: For Cc1ccc(NC(=O)C(=O)NCC(c2cccnc2)N2CCN(C)CC2)cc1 (stereo not given), which IkBa stabilization activation is on record?
A: inconclusive: -4.78% [signal inhibitor]

Q: For O=C(NCc1ccco1)c1ccc2c(=O)n(Cc3ccco3)c(SCC(=O)N3CCCC3)nc2c1, which IkBa stabilization activation is on record?
A: inconclusive: 1.17% [signal inhibitor]

Q: With CCn1c2c(c(=O)n3ncc(C(=O)Nc4ccc(C(=O)OC)cc4)c13)CN(Cc1ccc(OC)cc1)CC2 as the molecule, how does the IkBa stabilization activation read?
A: inconclusive: 2.73% [signal inhibitor]

Q: With COc1ccc(C)cc1NC(=O)c1ccc2nc(Cc3ccccc3)oc2c1 as the molecule, how does the IkBa stabilization activation read?
A: inconclusive: 1.21% [signal inhibitor]

Q: For CC(=O)Nc1ccc(N2C(=O)CSC2c2ccc(F)cc2)cc1 (stereo not given), which IkBa stabilization activation is on record?
A: inactive

Q: For COc1ccc(N2CCN(C(=O)CSc3nc4ccccc4nc3Cc3ccc(Cl)cc3)CC2)cc1, which IkBa stabilization activation is on record?
A: inconclusive: 0.359% [signal inhibitor]

Q: Which IkBa stabilization activation does the source give for CCOc1ccc(OCc2ccc(C(=O)Nc3cccc(C)n3)o2)cc1 here?
A: inconclusive: 5.71% [signal inhibitor]

Q: For Cc1c(C(=O)NCCc2ccc(Cl)cc2)cccc1-n1cnc2cccnc21, which IkBa stabilization activation is on record?
A: inconclusive: 0.084% [signal inhibitor]

Q: For COc1ccc(N2CCN(C(=O)c3cc(-c4ccc(C)c(F)c4)on3)CC2)cc1, which IkBa stabilization activation is on record?
A: inconclusive: 11.5% [signal inhibitor]

Q: With CCn1c2ccccc2c2cc(CN3CCN(Cc4ccc(OC)c(OC)c4)CC3)ccc21 as the molecule, how does the IkBa stabilization activation read?
A: inconclusive: 7.04% [signal inhibitor]

Q: With CCn1c(/C=N/n2cnnc2)nc2ccccc21 as the molecule, how does the IkBa stabilization activation read?
A: inactive

Q: For COc1ccc(Cn2c(=O)[nH]c3cc(C(=O)N4CCN(Cc5ccccc5)CC4)ccc3c2=O)cc1, which IkBa stabilization activation is on record?
A: inconclusive: 3.22% [signal inhibitor]

Q: Which IkBa stabilization activation does the source give for CCCn1c(/C=C/c2ccccc2)nc2ccccc21 here?
A: inactive

Q: With Cc1cc(C)c(Cn2c(=O)n(CCCC(=O)NCc3ccco3)c(=O)c3ccccc32)c(C)c1 as the molecule, how does the IkBa stabilization activation read?
A: inactive

Q: For COc1cc(OC)c(OC)cc1CNc1cc(C)ccc1OC, which IkBa stabilization activation is on record?
A: inconclusive: -0.769% [signal inhibitor]

Q: With CCOC(=O)Cn1c(=O)n(CC2CCCO2)c2nc(-c3ccccc3Cl)nc(C(N)=O)c21 (stereo not given) as the molecule, how does the IkBa stabilization activation read?
A: inconclusive: 2.5% [signal inhibitor]

Q: With CCOc1ccc(N(CC)C(=O)c2noc3c2COc2ccc(C)cc2-3)cc1 as the molecule, how does the IkBa stabilization activation read?
A: inactive

Q: With COc1ccccc1C(=O)Nc1c(C(=O)c2ccccc2)oc2ccccc12 as the molecule, how does the IkBa stabilization activation read?
A: inactive

Q: Which Potency does the source give for O=c1c(N2CCc3ccccc3C2)csc2ccc(F)cc12 here?
A: inconclusive: 20 µM [signal inhibitor, single point]

Q: For CCOc1ccccc1NC(=O)C1=C(C)Nc2ncnn2C1c1sccc1C (stereo not given), which IkBa stabilization activation is on record?
A: inconclusive: -0.634% [signal inhibitor]

Q: For c1ccc(CSc2nnc(-c3ccco3)c(-c3ccco3)n2)cc1, which Potency is on record?
A: inconclusive: 31.6 µM [rising, partial curve]

Q: Which IkBa stabilization activation does the source give for Cc1ccc(CNC(=O)c2c(-c3ccc(Br)cc3)noc2C)o1 here?
A: inconclusive: 1.44% [signal inhibitor]

Q: With COc1ccccc1N1CCN(C(=O)c2cc(-c3cccs3)on2)CC1 as the molecule, how does the IkBa stabilization activation read?
A: inconclusive: 12.7% [signal inhibitor]

Q: For Fc1ccccc1N1CCN(c2nnc(C(F)(F)F)c3nnn(Cc4ccccc4)c23)CC1, which IkBa stabilization activation is on record?
A: inconclusive: 4.97% [signal inhibitor]

Q: For CN(C)S(=O)(=O)N(CC(=O)Nc1ccc(Br)cc1F)c1ccccc1, which IkBa stabilization activation is on record?
A: inconclusive: 2.87% [signal inhibitor]

Q: Which IkBa stabilization activation does the source give for COc1ccc(C)cc1NC(=O)C1CCCN(S(=O)(=O)c2ccc3c(c2)CCCN3C(C)=O)C1 (stereo not given) here?
A: inconclusive: -0.251% [signal inhibitor]

Q: For C=CCn1c(SCC(=O)Nc2cccc(OC)c2)nnc1-c1cccnc1, which Potency is on record?
A: inconclusive: 7.94 µM [signal inhibitor, partial curve]

Q: With CCCn1c(CN2CCN(C(=O)c3ccco3)CC2)nc2c1c(=O)n(C)c(=O)n2C as the molecule, how does the Potency read?
A: inconclusive: 3.16 µM [rising, partial curve]

Q: For CCC(CC)C(=O)Nc1nnc(SCc2cc(=O)c3ccccc3[nH]2)s1, which IkBa stabilization activation is on record?
A: inactive

Q: With CCCCOc1ncnc2c1[nH]c1ccc(F)cc12 as the molecule, how does the IkBa stabilization activation read?
A: inactive

Q: Which IkBa stabilization activation does the source give for CCC(C)(C)NC(=O)C1CCC(CNS(=O)(=O)c2ccc3c(c2)CC(C)N3C(C)=O)CC1 (stereo not given) here?
A: inconclusive: 1.23% [signal inhibitor]

Q: With CCOCCCNC(=O)CN1C(=O)c2cccnc2Sc2ccccc21 as the molecule, how does the IkBa stabilization activation read?
A: inactive

Q: For O=C1CCCC(O)=C1C(C#Cc1ccccc1)C1=C(O)CCCC1=O, which IkBa stabilization activation is on record?
A: inconclusive: 3.77% [signal inhibitor]

Q: Which IkBa stabilization activation does the source give for COc1cccc(NC(=O)Cn2cnc3sc(C)c(S(=O)(=O)N4CCN(C)CC4)c3c2=O)c1 here?
A: inconclusive: 14.5% [signal inhibitor]

Q: Which IkBa stabilization activation does the source give for CCOc1ccccc1NC(=O)c1cc(CC(C)C)oc1C here?
A: inconclusive: 4.28% [signal inhibitor]

Q: Which IkBa stabilization activation does the source give for Cc1cc2ncc(-c3ccc(Cl)cc3)c(N)n2n1 here?
A: inactive

Q: For CCN(CC)S(=O)(=O)c1ccc(/C(O)=C(\C#N)c2nc3ccccc3n2C)cc1, which IkBa stabilization activation is on record?
A: inconclusive: 2.85% [signal inhibitor]

Q: For O=C(c1ccc2c(c1)CCN2S(=O)(=O)c1ccc(Cl)cc1)N1CCN(c2ccccc2F)CC1, which IkBa stabilization activation is on record?
A: inconclusive: 1.3% [signal inhibitor]

Q: With Cc1nn(-c2ccccc2)c2c1C(O)n1c(nc3ccccc31)S2 (stereo not given) as the molecule, how does the IkBa stabilization activation read?
A: inconclusive: 9.23% [signal inhibitor]

Q: Which IkBa stabilization activation does the source give for COc1ccc(S(=O)(=O)N2CCC(NC(=O)Nc3ccc(C)cc3)CC2)cc1 here?
A: inconclusive: 0.861% [signal inhibitor]

Q: For CN(C)c1ccc(CN2CCc3nc(N4CCN(c5ccccn5)CC4)ncc3C2)cc1, which IkBa stabilization activation is on record?
A: inconclusive: 8.32% [signal inhibitor]

Q: For Cc1nc2c(c(SCC(=O)Nc3ccccc3C(F)(F)F)n1)CCC2, which IkBa stabilization activation is on record?
A: inconclusive: 1.65% [signal inhibitor]

Q: Which IkBa stabilization activation does the source give for Cc1cc(OC(C)C(=O)N2CCN(CCc3ccccn3)CC2)ccc1Cl (stereo not given) here?
A: inconclusive: 3.35% [signal inhibitor]

Q: Which IkBa stabilization activation does the source give for C[C@@H](N1CCOCC1)[C@@](O)(c1ccccc1)c1ccccn1 here?
A: inactive: 2% [at 11.4 µM, scaled: untreated 0%, proteasome inhibitor 100%]

Q: Which IkBa stabilization activation does the source give for CC(C)N(Cc1ccccc1)C(=O)c1cc2ccc3cccnc3c2[nH]1 here?
A: inactive

Q: Which IkBa stabilization activation does the source give for CCOc1ccccc1N1CC(c2nc3ccccc3n2CCCOc2ccccc2)CC1=O (stereo not given) here?
A: inconclusive: 0.718% [signal inhibitor]

Q: With Cc1nnc(N2CCN(c3ccc(Cl)cc3)CC2)c2c1nnn2Cc1ccc(F)cc1 as the molecule, how does the IkBa stabilization activation read?
A: inconclusive: 0.112% [signal inhibitor]

Q: With COc1cccc(C(c2sc3nc(-c4ccco4)nn3c2O)N2CCCC2)c1 (stereo not given) as the molecule, how does the IkBa stabilization activation read?
A: inactive

Q: With Oc1ccc(Nc2nc(-c3ccc(O)cc3)cs2)cc1 as the molecule, how does the IkBa stabilization activation read?
A: inconclusive: -1.18% [signal inhibitor]

Q: With CN(C1CCCCC1)S(=O)(=O)c1ccc(F)c(C(=O)Nc2ccc(C(F)(F)F)cc2)c1 as the molecule, how does the IkBa stabilization activation read?
A: inconclusive: 0.721% [signal inhibitor]

Q: Which IkBa stabilization activation does the source give for COc1ccc(NC(=O)c2c(NCc3cccs3)sc3c2CCCCC3)cc1 here?
A: inconclusive: 2.82% [signal inhibitor]

Q: Which IkBa stabilization activation does the source give for CCc1ccc(NC(=O)C(=O)NCCc2sc(-c3ccc(OC)c(OC)c3)nc2C)cc1 here?
A: inactive

Q: Which IkBa stabilization activation does the source give for COc1cc(OC)cc(C(=O)NCCc2csc(-c3cccc(C)c3)n2)c1 here?
A: inconclusive: 6.45% [signal inhibitor]
